# Measured values published in ChEMBL document CHEMBL4888484, “Replenishing the malaria drug discovery pipeline: Screening and hit evaluation of the MMV Hit Generation Library 1 (HGL1) against asexual blood stage Plasmodium falciparum ,using a nano luciferase reporter read-out” (2022).
# Screen size: about 150,000 compounds; about 540 (0.36%) showed an effect of 50% or more. Some of the results follow.
# Tested on: Plasmodium falciparum
# Assay: Primary screen in NF54 nanoGlo assay, in single point, at 2uM, 72h; a lower Z score goes with more inhibition
# Type: functional, Erythrocyte
# Details: timepoint 72 hour
Structure (SMILES),% Inhibition [%],Z score
CCO[C@H]1C[C@@H](NC(=O)c2ccc(O)c(CC)c2)C1,-3,0.36
Cc1csc(C(C)(C)NCCCCC#N)n1,-9,1.15
CS(=O)(=O)CCn1cnc(-c2ccccc2)c1-c1nccs1,-9,1.13
CS(=O)(=O)N1CCO[C@@H](CNC(=O)Nc2ccc3[nH]ncc3c2)C1,2,-0.32
CC(C)N(C[C@H](C)O)C(=O)CC1CCC(C(F)(F)F)CC1 (stereo partly drawn),-4,0.69
COc1ccc(CC(=O)Nc2cc(C)no2)cc1C,5,-0.82
CN(Cc1ccccc1)C1(CNC(=O)[C@H]2CCCOC2)CCC1,-10,1.73
O=c1c2cc(F)c(F)cc2ncn1C[C@@H](O)CC1CCCC1,37,-0.84
COc1ccc(OC)c(NC(=O)CN2CCc3[nH]c4c(C)ccc(C)c4c(=O)c3C2)c1,8,-0.96
CN(CC[C@H](O)C(F)(F)F)Cc1ccccc1,33,-4.3
CNC(=O)C(C)(C)CNc1nc(C)cc(OC)n1,9,-1.02
CNS(=O)(=O)CC(=O)N(CC(C)C)[C@@H](C)c1ccccc1C,0,0.01
O=C(CCNc1cnc2ccccc2n1)N1CCOCC1,3,-0.46
Cc1noc(C2CN(C(=O)[C@H]3CC(=O)N(c4cccc(Br)c4)C3)C2)n1,-14,2.58
Cc1nccc(NC(=O)N2CCC(C)(O)CC2)c1Br,-10,0.92
CN(C)C[C@]1(CO)CCCN(C(=O)c2cccc3c2CCC3=O)C1,-12,1.23
CCc1ccc(CN2C(=O)c3c(C(=O)OC)ncn3C[C@@]2(C)C(=O)NC2CCCCCC2)cc1,38,-5.49
CNc1nc(N2CCCn3nc(CCC(=O)O)cc3C2)nc2c1CCC2,-14,2.81
N#CC1(C#N)C(c2ccccc2)CC(O)(C(F)(F)F)C(C(=O)C(F)(F)F)C1c1ccccc1 (stereo not drawn),34,-3.85
Cc1cc2c(cc1C)CN(c1cccc(C(=O)NC[C@@H]3C[C@H](F)CN3)c1)C2,-5,1.08
O=C(COc1ccccc1)Nc1cnc(N2CCCC2)nc1,-16,2.94

Structure (SMILES),% Inhibition [%],Z score
Cc1ccc(NC(=O)Cn2nc3ccc(C(=O)NCc4ccccc4)cn3c2=O)cc1F,-22,1.91
Cc1noc(C)c1CO[C@H]1COCC[C@@H]1NC(=O)c1cccc(N(C)C)c1,2,-0.34
Cn1cc(C(=O)NC[C@H]2CCc3ccccc32)c(=O)c2cnn(C)c21,-6,0.78
Cc1noc(Cc2ccc(NCc3nnc4n3CCCC4)cc2)n1,-2,0.29
COCC(=O)N(Cc1cc(-c2ccc(C)c(C)c2)on1)CC(C)C,-14,1.62
COc1cccc([C@H]2CCN(C(=O)N[C@H]3CC[C@H](O)CC3)C2)c1OC,11,-0.99
CCc1nnc(NC(=O)c2sc3ncccc3c2N)s1,-1,0.15
C=C(C)Cn1ccc(-c2cccc(-c3nc(C)cnc3C)c2)n1,-2,0.27
CN1CCC(N(CCc2ccccc2)C(=O)c2cncc(Cl)c2)CC1,-11,1.41
CNS(=O)(=O)c1cccc(NC(=O)N2CCN(c3oc(C4CC4)nc3C#N)CC2)c1,6,-0.91
Cc1ccc(C(=O)NC2(C)CCC2)cc1OCCCN,6,-1.13
COc1cccc(CN2CC3(CCN(C(=O)c4ccncc4)CC3)CC2=O)c1,-5,0.48
Cc1c(-c2ccc(C(=O)NC3CCC3)cc2)cnn1C(F)F,0,0.02
CC1CCCC(C)N1C(=O)Cn1nccc1C(N)=O (stereo not drawn),-11,1.1
CC1(C)CN(C(=O)c2c(O)cnc3c(F)cccc23)C1C1CCCO1 (stereo not drawn),-4,0.64
CCC[C@H]1CN(c2nc(N(C)C)nc3c2CCCC3)C[C@@H]1NS(C)(=O)=O,-1,0.17
CCO[C@H]1COCC[C@@H]1NC(=O)c1ccn2nnnc2c1,6,-1.1
Cn1nc(CC(=O)NS(=O)(=O)C2C[C@@H]3CC[C@H]2C3)c2ccccc21 (stereo partly drawn),6,-0.85
Cc1cc(C(=O)N[C@@H](C)c2nc(-c3cccnc3)cs2)cc(O)n1,51,-3.53
Cc1cc(C(F)(F)F)n(C[C@@H](C)CNC(=O)CN2C(=O)CNC2=O)n1,-2,0.46
CN1C(=O)N[C@]2(CCN(C(=O)c3cnn4ccccc34)C2)C1=O,-6,0.95

Structure (SMILES),% Inhibition [%],Z score
C[C@H]1Cc2[nH]ncc2CN(c2ncnc3c(F)cccc23)C1,12,-1.71
CCc1nc[nH]c1C(=O)N1CCN(C(=O)c2cccc(OC)c2)CC1,-2,0.32
O=C(NCc1ccncc1)c1ccc(NC(=O)c2ccoc2)cc1,28,-3.22
O=C(NCC1(Cn2cccn2)CC1)c1ncc[nH]1,-1,0.1
COC[C@@H]1[C@H](C(=O)N2CCN(c3ccc(OC)cc3)CC2)CCCN1Cc1ccccc1,-15,1.82
CC(=O)N1CCC(N[C@H]2C[C@@H](Cc3cc(CN4CCN(c5ccccc5)CC4)on3)C2(C)C)CC1,-8,1.07
Cc1nc(-c2ccc[nH]2)n(-c2ccc(F)cc2)n1,-4,0.53
C[C@@H](Cc1ccc2ccccc2c1)NS(=O)(=O)CC1CCOCC1,-8,0.76
CN1CC2(CCN(C(=O)c3ccc(Cl)cn3)CC2)CC1=O,-9,1.06
O=C1C[C@H](CNCc2ccc(OCC(F)F)cc2)CN1C1CC1,-16,2.31
c1cc2nnnn2nc1N(CC1CCCCC1)C1CC1,15,-1.97
CC(CNC(=O)N1CC[C@H](O)[C@@H]1C)c1ccc(Br)cc1 (stereo partly drawn),-15,2.94
CCc1nnc(CN(C)C(=O)CCc2cn[nH]c2)o1,-6,1.26
C[C@H](NC(=O)N1CCC(c2cncn2C)CC1)c1ccn(C)n1,-1,0.19
CCn1cc(NC(=O)C2CCN(c3nc(C)nc(C)c3C)CC2)cn1,-12,1.06
Cc1ccc(C(=O)N(CCN(C)C)Cc2cc3ccc(F)cc3nc2-c2ccccc2C)cc1,22,-2.82
CC(NC(=O)c1ccc(-n2cnnn2)cc1)C1CCCO1 (stereo not drawn),-3,0.58
Cc1noc(C)c1C(=O)NS(=O)(=O)Cc1ccc(Cl)c(F)c1,-7,0.84
COC(=O)c1ccc(CN(C)C(=O)c2cc(C)sn2)nc1,-4,0.45
C=CCNC(=O)Nc1ccccc1N1CCCN(Cc2ccccc2Cl)C1=O,-8,0.96
Cc1noc2ccc(CN3CCc4[nH]nc(Cc5cccs5)c4C3)cc12,4,-0.54

Structure (SMILES),% Inhibition [%],Z score
Cc1nc(-c2cccc(F)c2)nc(N2CCN(C(=O)c3ccccc3)CC2)c1C,-17,1.63
Cc1cc(C(=O)NCC2(c3ccccn3)CC2)n(C)n1,3,-0.3
C1=C(Cn2nnnc2N2CCC3(CC2)OCCCO3)CCCC1,-1,0.2
NS(=O)(=O)c1ccc(Cl)cc1Cl,-5,0.64
CC1CC(C)CN(C(=O)CCC(=O)NCCc2ccc(Cl)cc2)C1 (stereo not drawn),30,-3.87
O=C(c1cc(-c2ccc3c(c2)CCO3)no1)N1CCN(C2CCC2)CC1,-5,0.89
Cc1noc(/C=C/c2ccccc2OCCN2CCCCC2)n1,-1,0.14
CN(C(=O)CCc1ccccc1)C1CCN(c2ccccn2)CC1,-4,0.63
Cc1ccoc1C(=O)N[C@H](c1ccc(Cl)cc1)c1ncon1,-6,0.68
CCCCS(=O)(=O)N1CC(S(C)(=O)=O)C1,4,-0.81
O=C(C[C@H](c1nc2ccccc2c(=O)[nH]1)c1nc2ccccc2s1)NCc1ccc2c(c1)OCO2,-5,0.86
CC(C)(C(=O)Nc1cc2c([nH]c1=O)CCCC2)[C@H](N)c1ccccc1,-14,1.51
Cc1ccc(S(=O)(=O)N2CCN(c3nc(Cc4ccccc4)nc4c3c(C)nn4-c3ccccc3)CC2)cc1,-4,0.59
CCn1ncc(CN2CCC[C@H](OCc3noc(C)n3)C2)c1C,5,-0.75
CC(C)(C)c1ccc(CN2C(=O)[C@@H]3CCCN3C2=O)cc1,-14,1.2
Cn1cc(-c2nc([C@@H]3CCCCCN3C(=O)c3cc(C4CC4)[nH]n3)no2)cn1,-13,1.47
CC1CCCCC1OCCOC(=O)c1cc(-n2ccnc2)ccn1 (stereo not drawn),8,-0.95
Cc1[nH]nc(CCC(=O)N2CCC(C)(C#N)CC2)c1C,-16,2.35
Cc1cnc(N2CCC(N(C)C)CC2)nc1N(C)C,0,0.05
CC(C)N1C[C@@H](c2nc(-c3ccccc3)c(-c3ccccc3)[nH]2)CC1=O,3,-0.33
FC(F)(F)c1ccc(CN2CC[C@H](c3nc4ccccc4s3)C2)cc1,-5,0.7
